One assay relates to HSkMC. Description: cytotoxicity call (relative viability < 0.9). To be noted: 10 µM.
Another assay relates to HepG2. Description: cytotoxicity call (relative viability < 0.9). The settings on record: 10 µM.
For the next assay, the system named is S. aureus RN4220. Briefly: growth inhibition call (relative growth <= 0.2). To be noted: 50 µM.

The list shows a part of the results.

Turning to `CC(C)NC(=O)N(C)C[C@@H]1OCCCC[C@H](C)Oc2ccc(NS(=O)(=O)c3cn(C)cn3)cc2C(=O)N([C@@H](C)CO)C[C@@H]1C`, the cytotoxicity call with HSkMC and in the assay on HepG2 was “inactive” each time. For the same molecule, the growth inhibition call in the assay on S. aureus RN4220 was “inactive”.

Regarding `C=C1O[C@@](CO)(n2cnc3c(N)ncnc32)[C@H](O)[C@@H]1O`, the cytotoxicity call in the assay on HSkMC and in the assay on HepG2 was “inactive” in each case. Moreover, the growth inhibition call in the assay with S. aureus RN4220 was “inactive”.

Regarding `COc1ccc(NC(=O)N(C)C[C@H]2Oc3ccc(NC(=O)CCCCCC(=O)Nc4ccccc4N)cc3C(=O)N([C@H](C)CO)C[C@H]2C)cc1`, the cytotoxicity call in the assay on HSkMC and in the assay on HepG2 was “inactive” throughout. In the assay with S. aureus RN4220, the growth inhibition call was “inactive”.

`C[C@@H]1CN([C@H](C)CO)C(=O)Cc2cc(NC(=O)Cc3ccccc3)ccc2O[C@@H]1CN(C)S(=O)(=O)c1cccs1`: the cytotoxicity call with HSkMC and in the assay on HepG2 was “inactive” in each case. For the same molecule, the growth inhibition call in the assay with S. aureus RN4220 is “inactive”.

For the molecule `C[C@@H]1CCCCO[C@H](CN(C)C(=O)NC2CCCCC2)[C@@H](C)CN([C@@H](C)CO)C(=O)c2cc(NC(=O)c3ccccc3)ccc2O1`, the cytotoxicity call in the assay on HSkMC and in the assay on HepG2 was “inactive” each time. Further, the growth inhibition call with S. aureus RN4220 is “inactive”.

For `O=C(C[C@@H]1C[C@@H]2c3cc(NC(=O)Nc4ccc(C(F)(F)F)cc4)ccc3O[C@@H]2[C@@H](CO)O1)NCc1cc(F)ccc1F`, the cytotoxicity call with HSkMC and in the assay with HepG2 was “inactive” throughout. The growth inhibition call in the assay with S. aureus RN4220 was “inactive”.

In the case of `COc1cc2c(cc1-c1coc3c4c(ccc3c1=O)OC(C)(C)CC4)OCO2`, the cytotoxicity call in the assay with HSkMC and with HepG2 was “inactive” throughout. Further, the growth inhibition call in the assay on S. aureus RN4220 was “inactive”.

In the case of `C[C@@H]1CN([C@@H](C)CO)C(=O)c2cc(NC(=O)Nc3cccc4ccccc34)ccc2O[C@@H](C)CCCCO[C@@H]1CN(C)C(=O)NC1CCCCC1`, the cytotoxicity call in the assay with HSkMC and with HepG2 was “inactive” in each case. Moreover, the growth inhibition call in the assay on S. aureus RN4220 is “inactive”.

Regarding `COc1cccc(S(=O)(=O)Nc2ccc3c(c2)[C@@H]2C[C@H](CC(=O)NCc4ccccc4F)O[C@H](CO)[C@@H]2O3)c1`, the cytotoxicity call with HSkMC and with HepG2 was “inactive” each time. In the assay with S. aureus RN4220, the growth inhibition call is “inactive”.

Consider `O=C(C[C@@H]1C[C@H]2c3cc(NC(=O)Nc4ccccc4F)ccc3O[C@H]2[C@@H](CO)O1)NCc1ccc(Oc2ccccc2)cc1`, for which the cytotoxicity call in the assay on HSkMC and with HepG2 was “inactive” each time. Also, the growth inhibition call in the assay on S. aureus RN4220 was “inactive”.

Turning to `C[C@H]1CCCCO[C@@H](CN(C)Cc2ccc(C(F)(F)F)cc2)[C@@H](C)CN([C@@H](C)CO)C(=O)c2cc(NC(=O)CCCN(C)C)ccc2O1`, the cytotoxicity call in the assay on HSkMC and in the assay on HepG2 was “inactive” throughout. Also, the growth inhibition call with S. aureus RN4220 is “inactive”.

With `Cc1ccc(S(=O)(=O)Nc2ccc3c(c2)C(=O)N([C@@H](C)CO)C[C@@H](C)[C@H](CN(C)S(=O)(=O)c2cn(C)cn2)O3)cc1`, the cytotoxicity call in the assay on HSkMC and in the assay with HepG2 was “inactive” each time. Besides, the growth inhibition call in the assay on S. aureus RN4220 is “inactive”.

As for `COc1ccc(NC(=O)N(C)C[C@H]2OCCCC[C@@H](C)Oc3ccc(NS(=O)(=O)c4c(C)noc4C)cc3C(=O)N([C@H](C)CO)C[C@H]2C)cc1`, the cytotoxicity call in the assay with HSkMC and in the assay with HepG2 was “inactive” each time. In addition, in the assay on S. aureus RN4220, the growth inhibition call is “inactive”.

On to `C[C@H](CO)N1C[C@H](C)[C@@H](CN(C)Cc2ccc(C(F)(F)F)cc2)OCCCC[C@H](C)Oc2ccc(NC(=O)CCC(F)(F)F)cc2C1=O`, for which the cytotoxicity call in the assay on HSkMC and in the assay with HepG2 was “inactive” in each case. The growth inhibition call in the assay on S. aureus RN4220 was “inactive”.

With `Cc1ccc(S(=O)(=O)N(C)C[C@@H]2Oc3ccc(NC(=O)C4CC4)cc3CC(=O)N([C@H](C)CO)C[C@H]2C)cc1`, the cytotoxicity call with HSkMC and in the assay with HepG2 was “inactive” in each case. In addition, the growth inhibition call with S. aureus RN4220 is “inactive”.

With `CC(C)c1c(O)ccc2c1CC[C@H]1C(C)(C)CCC[C@]21C`, the cytotoxicity call in the assay on HSkMC and with HepG2 was “active” each time. The growth inhibition call in the assay with S. aureus RN4220 is “inactive”.

Turning to `C[C@@H]1CN([C@@H](C)CO)C(=O)c2cc(NS(=O)(=O)c3ccc(F)cc3)ccc2O[C@@H](C)CCCCO[C@H]1CN(C)C(=O)NC1CCCCC1`, the cytotoxicity call in the assay on HSkMC and in the assay on HepG2 was “inactive” in each case. For the same molecule, in the assay on S. aureus RN4220, the growth inhibition call is “inactive”.

For the molecule `OC[C@H]1O[C@H](O[C@]2(CCl)O[C@H](CCl)[C@@H](O)[C@@H]2O)[C@H](O)[C@@H](O)[C@H]1Cl`, the cytotoxicity call in the assay on HSkMC and with HepG2 was “inactive” in each case. Moreover, the growth inhibition call in the assay with S. aureus RN4220 is “inactive”.

On to `COc1ccc(C#Cc2cnc3c(c2)C(=O)N([C@H](C)CO)C[C@H](C)[C@@H](CN(C)C(=O)CC2CC2)O3)cc1`, for which the cytotoxicity call in the assay on HSkMC and in the assay on HepG2 was “inactive” each time. Also, the growth inhibition call with S. aureus RN4220 is “inactive”.

`C[C@@H]1CN([C@@H](C)CO)C(=O)c2cccc(NC(=O)C3CCOCC3)c2O[C@H]1CN(C)Cc1ccncc1`: the cytotoxicity call in the assay with HSkMC and with HepG2 was “inactive” throughout. Besides, the growth inhibition call with S. aureus RN4220 was “inactive”.

As to `C[C@H]1CN([C@@H](C)CO)C(=O)c2cccc(NC(=O)C3CCOCC3)c2O[C@H]1CN(C)Cc1ccc(C(=O)O)cc1`, the cytotoxicity call with HSkMC and with HepG2 was “inactive” throughout. Also, the growth inhibition call in the assay on S. aureus RN4220 is “inactive”.

Consider `Oc1c(Cl)cc(Cl)c(Cl)c1Cc1c(O)c(Cl)cc(Cl)c1Cl`, for which the cytotoxicity call with HSkMC and with HepG2 was “active” each time. For the same molecule, the growth inhibition call in the assay on S. aureus RN4220 is “inactive”.

For `Cc1noc(C)c1S(=O)(=O)Nc1ccc2c(c1)C(=O)N([C@H](C)CO)C[C@H](C)[C@H](CN(C)Cc1ccc(-c3ccccc3)cc1)O2`, the cytotoxicity call in the assay on HSkMC and in the assay on HepG2 was “inactive” each time. Besides, in the assay with S. aureus RN4220, the growth inhibition call was “inactive”.

Regarding `O=C(CCCCCCC(=O)Nc1cccc(C(=O)NCCOCCOCCNC(=O)c2cccc(NC(=O)CCCCCCC(=O)NO)c2)c1)NO`, the cytotoxicity call in the assay on HSkMC and in the assay with HepG2 was “inactive” in each case. In addition, the growth inhibition call in the assay on S. aureus RN4220 was “inactive”.

On to `COc1ccc(S(=O)(=O)N(C)C[C@@H]2Oc3ccc(NC(=O)Nc4c(C)noc4C)cc3C(=O)N([C@@H](C)CO)C[C@@H]2C)cc1`, for which the cytotoxicity call in the assay with HSkMC and in the assay on HepG2 was “inactive” throughout. The growth inhibition call in the assay with S. aureus RN4220 is “inactive”.

Take `CC(C)(O)C#Cc1ccc([C@@H]2[C@@H](CO)N3CCCCN(S(C)(=O)=O)C[C@H]23)cc1`: the cytotoxicity call in the assay on HSkMC (human skeletal muscle cells) and in the assay on HepG2 was “inactive” in each case. Besides, in the assay with S. aureus RN4220, the growth inhibition call is “inactive”.

Regarding `C[C@H]1CN([C@@H](C)CO)C(=O)Cc2cc(NC(=O)Nc3cccc4ccccc34)ccc2O[C@H]1CN(C)Cc1ccc(Oc2ccccc2)cc1`, the cytotoxicity call in the assay with HSkMC was “inactive”. In the assay with HepG2, the cytotoxicity call is “active”. In the assay with S. aureus RN4220, the growth inhibition call is “inactive”.

Source of the values: the antibiotic and cytotoxicity screens of Wong et al. (2023).
